# This is one part of the list. Interaction screen of human proteins with wild-type SARS-CoV-2 proteins by split-DHFR complementation in yeast, 1 µg/mL methotrexate. Value = fitness of the pair (three or more lineages) minus that of the viral protein without a human partner, on a scale set by negative (0) and fused positive (1) controls, mean of up to three cultures; higher = more likely to interact. Active = false discovery rate below 0.05 (one-sided t-test) in at least one culture. Nearly all pairs are not hits, and differences among them are mostly noise (correlation between cultures about 0.3); most hits were seen in one culture only. Human sequences are the Swiss-Prot entries looked up by gene name; the clone may be another isoform. NSP2 values were corrected by the authors for a growth advantage. Listed are human proteins with a hit and a random twelfth of the others.
# Tested on: SARS-CoV-2 NSP12
# Assay: yeast fitness gain over the viral ORF with no human partner (scaled fitness); higher = more likely to interact
# Description: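 Split mouse DHFR complementation in pooled diploid yeast: human ORFeome clones carry one fragment and viral ORFs the other; barcoded lineages compete in 1 µg/mL methotrexate and fitness is read by barcode sequencing in up to three cultures.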
row,Substance,yeast fitness gain
1,"HYDIN, Q4G0P3",inactive: -0.0959
2,"SRGAP1, Q7Z6B7",inactive: -0.264
3,"HAUS7, Q99871",inactive: 0.03
4,"BNIP3L, O60238",inactive: -0.349
5,"ZFYVE26, Q68DK2",inactive: 0.0215
6,"DESI2, Q9BSY9",inactive: -0.0481
7,"EGR3, Q06889",inactive: 0.0415
8,"PRR14L, Q5THK1",inactive: 0.00789
9,"OR4D1, Q15615",inactive: -0.3
10,"KLF6, Q99612",inactive: -0.13
11,"POLD2, P49005",inactive: -0.00686
12,"CABP5, Q9NP86",inactive: 0.0534
13,"FAM19A3, Q7Z5A8",inactive: -0.0326
14,"HSPB7, Q9UBY9",inactive: -0.0169
15,"NDRG4, Q9ULP0",inactive: 0.0252
16,"MCM9, Q9NXL9",inactive: -0.505
17,"RALYL, Q86SE5",inactive: 0.0453
18,"TLK2, Q86UE8",inactive: -0.0861
19,"PTBP1, P26599",inactive: 0.222

row,Substance,yeast fitness gain
1,"TLX3, O43711",inactive: 0.109
2,"HOXC8, P31273",inactive: -0.018
3,"MAFF, Q9ULX9",inactive: -0.0719
4,"OXCT1, P55809",inactive: -0.0341
5,"BHLHA15, Q7RTS1",inactive: -0.186
6,"MT2A, P02795",inactive: -0.118
7,"FAM136A, Q96C01",inactive: -0.0492
8,"MAGEA10, P43363",inactive: -0.0635
9,"ZNF517, Q6ZMY9",inactive: 0.0402
10,"TIMM50, Q3ZCQ8",inactive: 0.0688
11,"ZNF673, Q5JUW0",inactive: -0.0459
12,"TET2, Q6N021",inactive: -0.259
13,"PTCD1, O75127",inactive: -0.177
14,"ZNF785, A8K8V0",inactive: -0.0584
15,"HEATR1, Q9H583",inactive: -0.0383
16,"IDH3B, O43837",inactive: 0.0932
17,"IHH, Q14623",inactive: 0.0116
18,"RGS3, P49796",inactive: 0.0887
